In the RNAGym collection of RNA variant scans (doi:10.1093/nar/gkz1192):
The source gives no read counts; variants with many changes may rest on few reads.

B1: CPEB3 Ribozyme (parent)
chain: UAACAGGGGGCCACAGCAGAAGCGUUCACGUCGCAGCCCCUGUCAGAUUCUGGUGAAUCUGCGAAUUCUGCUGUAUAUCUC

Variants of: B1
Experiment: self-cleavage, relative activity (ratio to wild type); higher = more cleavage; in vitro, sequencing
In short: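 For each CPEB3 ribozyme variant, relative activity is its cleaved/total read fraction divided by the unmutated ribozyme's. Barcoded error-prone PCR libraries were transcribed by T7 RNA polymerase (5 hours, 37°C) and held in DNase I for 15 min before an EDTA stop, with cleavage occurring throughout. Template-switching reverse transcription and Illumina sequencing were used to read the RNAs. A 5-read minimum applied, and results are the mean of three batches.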

Row | Variant | self-cleavage
1 | C40A A56G A65G U80G | 0.33
2 | C40A U60C U69A | 0.16
3 | U41C G70A U78A | 0.41
4 | C39A U66A G73C | 0.78
5 | U41C A45C U60C U69C | 0.07
6 | U41A U43C U49C A57G U80A | 0.06
7 | U41C A57G U69C | 0.49
8 | U41C G46U G73A | 1.13
9 | C40U A45C A77G U78C | 0.13
10 | C40A U58C A64U A65G | 0.38
11 | U41C A45U U54C A64U | 0.11
12 | U41A U51C U54A U74C | 0.4
13 | C40U U58C U69C U72C | 0.35
14 | U41A U72C U74A | 0.27
15 | U41A A64U A77G | 0.11
16 | U41C C62A U78C | 0.15
17 | U41C A45U G61U A64C U76C A77C | 0.25
18 | U41A U51C G61C A77U | 0.08
19 | U41C A57U A75U | 0.82
20 | U41A A45G U49A | 0.53
21 | U41A U43G U69C | 0.14
22 | U41A A64U U69C | 0.19
23 | U41A A65G A77G | 0.53
24 | U41A U51A U80A | 0.31

Row | Variant | self-cleavage
25 | C40A C44U A56G U78A | 0.25
26 | U41C G70U U78C U80A | 0.48
27 | U41C U43C U51A A65C U78C | 0.07
28 | U41C A56U A57G | 0.3
29 | U41C A45U C62A U80C | 0.2
30 | U41A U43C U51C U60A U67C A77G | 0.06
31 | U41A A56G A65G U72C C81G | 0.16
32 | U41A U49C U76A | 0.45
33 | U41C A47U A57G | 0.32
34 | U41A U51G U78C | 0.13
35 | U41A A45U U58C | 0.1
36 | C40G U41A G63U U72C U80C | 0.1
37 | U41A A57G U72C | 0.22
38 | C40A U43A U60A U69C | 0.11
39 | U41C U51A G63A | 0.89
40 | U41C G63A C68A | 0.36
41 | U41C A56G U80A | 1.13
42 | U41C A47G U72C | 1.24
43 | U41A A47G U48C U54A | 0.07
44 | C40A U48C A64G | 0.13
45 | U41C G46U A77U U78C | 0.25
46 | C40G G55A A64G U69C U72C | 0.18
47 | U41A U74A U80C | 0.18
48 | U41C U43A G63U | 0.8

Row | Variant | self-cleavage
49 | U41A U67C U80C | 0.18
50 | U41C A56G A64G | 0.52
51 | U41C A47G U54A U60C U69G | 0.5
52 | C40U U41C U43C A56U U58C U78C | 0.13
53 | U41A U48C U60G | 0.15
54 | U41A U48C U60A | 0.3
55 | U41A A45G U80A | 0.21
56 | U41A G55A G63A U67A | 0.1
57 | C40U A45U A64U U78C | 0.11
58 | U41C G46A A56G A57G | 0.16
59 | U41C G52U U58C A65G U72C | 0.27
60 | C40A A56G U69C U74A | 0.04
61 | C40U A45U U74A | 0.65
62 | U41C A45G U48C U49G C50G C59A U60A | 0.12
63 | U41C A57C U60A C81U | 0.16
64 | C40U U48C U54G A77C | 0.17
65 | C40U U48A U51A U54C A57G U80A | 0
66 | U41A C44A U54C | 0.09
67 | U41A G46A C50U A56U U60C U72A U76A | 0.05
68 | C40A A45G U80C | 0.09
69 | U41A A47G A64G U76C | 0.11
70 | C40U U48C A56U U76C | 0.14
71 | U41C A64G A77G | 0.69
72 | U41A U51A U60A A75U | 0.34

Row | Variant | self-cleavage
73 | U41A A64G U69C U78C | 0.18
74 | U41A U54A U74G A75U | 0.44
75 | U41A A65G U80G | 0.21
76 | U41C G55A U58C | 0.27
77 | U41C C50A A56G | 0.69
78 | C40U A65G U69A U72C | 0.13
79 | U41C A64G U72C A75U | 0.73
80 | U41C A65U C71U U78A | 0.23
81 | U41A A47G U51C A57U U60G | 0.1
82 | U41A A45U A64G U69A U78C | 0.17
83 | U41C A65G U72A | 0.66
84 | U41C A56U U66C U80C | 0.28
85 | U41C U48C C59A U78A | 0.11
86 | C40U U54C A65U U72C | 0.19
87 | C40A U49C A65G | 0.11
88 | U41C A65G U69C U80C | 0.27
89 | C39A U76A U80A | 0.36
90 | U41C A45G U69A U80A | 0.82
91 | C40U U43C U49C A65G U69A | 0.14
92 | U41C A56G C81A | 1.17
93 | C40U A47G A56U | 0.3
94 | C40A U41A U67C | 0.17
95 | C39U A64G U72C | 0.41
96 | U41A U48C A56G | 0.38

Row | Variant | self-cleavage
97 | C39G A56G C62U U66C U80C | 0.1
98 | C40U G42A U78G | 0.43
99 | U41A A45G U51C U76C | 0.08
100 | U41A U67C U69A U72C U80A | 0.05
101 | U41C U48C A65U U78A U80A | 0.11
102 | U41C U43A G46U A56G | 0.16
103 | U41C U43A U74A | 0.92
104 | C40U A47G C59U | 0.19
105 | U41C C50A A56G A64C C68U | 0.07
106 | C40A U51G A64G | 0.24
107 | U41A U54C G61A U80A | 0.16
108 | U41A U51A U54A U60C | 0.08
109 | C40G A45G U60A | 0.24
110 | C40A A57U C79G | 0.04
111 | U41C A56G U60A U74A | 0.18
112 | U41A A57G U74C | 0.13
113 | U41A U51C A56G U78C | 0.17
114 | U41A A56G C62U A77U U80C | 0.19
115 | U41A A65G U78C | 0.08
116 | U41C A47G U60A | 0.44
117 | U41C A47G U51C C79U U80C | 1.13
118 | U41A U43C U69C | 0.13
119 | C40A U51C U69C | 0.21
120 | U41C U43C U66C | 0.28

Row | Variant | self-cleavage
121 | U41A A75G U80C | 0.15
122 | U41C A57U U66C U76C | 0.43
123 | U41A A45G U69A | 0.39
124 | U41A U49C U69A | 0.18
125 | U41A U54C A77G | 0.25
126 | U41C A56U A64G U80C | 0.77
127 | U41A U54C C71G U72C A77U U78C | 0.05
128 | C39U U43C A45G A47U U48C U60A | 0.18
129 | U41C U43C U67C | 0.14
130 | U41A U54C A56G U72C A77G U80C | 0.12
131 | C39G U43A C68A C71A | 0.15
132 | U41A U43A U69A | 0.24
133 | U41C G42C U74C A75U U76C | 0.47
134 | U41C A64U A75U | 0.54
135 | U41C A57G U67G | 0.31
136 | C40A U43C A64U | 0.13
137 | U41A U51C U78A | 0.17
138 | U41C C62G U67C | 0.23
139 | C40U U67C U72C | 0.09
140 | U41C U51A U66C U78C | 0.52
141 | U41C G46U A47G C68A | 0.21
142 | U41A U43A A45G | 0.09
143 | C40U A65G A75G | 0.13
144 | U41A U76C U80C | 0.28

Row | Variant | self-cleavage
145 | U41A U76C U80A | 0.54
146 | U41A A47G U60C A65G | 0.1
147 | U41C A45G U66A | 0.64
148 | U41C C50G U54C | 0.87
149 | U41A U54A U69C U76A | 0.11
150 | U41A G42A G63C | 0.31
151 | C40U U67A U72C | 0.28
152 | C40U U54G A64G | 0.26
153 | U41A U74A A75G | 0.31
154 | C40A U51C U72A | 0.11
155 | U41A A45G C50U U78C | 0.2
156 | U41A A47G U54C | 0.12
157 | U41C G61A A77U | 0.62
158 | U41A A64U U80C | 0.42
159 | U41A A56G A64U A77U | 0.31
160 | U41C C62A A64G A65G G73A | 0.12
161 | U41C U51A U78C | 1.21
162 | U41C U43C U67A G73C U74A | 0.09
163 | U41C A65G A77G | 0.58
164 | U41C A56U A57G U72C | 0.53
165 | C40U A45U A57G C68A | 0.25
166 | C40A U54C U72A | 0.11
167 | U41A U49C A64G U76C | 0.13
